About 110 (5.5%) of roughly 2,000 compounds showed an effect of 50% or more. This is one part of the list.
Biological target: Genome polyprotein (dengue virus type 2) (UniProt P29990)
[1] = Thailand/16681/1984, Concentration 25.0 uM, Number of replicates 1.0

## CNC(=O)c1ccccc1NC(=O)C1CCN(c2ccc(C=O)cc2)CC1
[1]
  inhibition: -5.29%

## CCn1ccnc(N2CC[C@H](c3ccc(C#N)cc3)C2)c1=O
Thailand/16681/1984, Concentration 49.5 uM, Number of replicates 2.0, Standard deviation 0.7276744432598639 %
  inhibition: 8.12%
Thailand/16681/1984, Concentration 99.01 uM, Number of replicates 2.0, Standard deviation 0.49854124686905393 %
  inhibition: 17.1%
Thailand/16681/1984, Concentration 198.0 uM, Number of replicates 2.0, Standard deviation 0.36791973396409117 %
  inhibition: 32.1%

## CCCOc1ccc(NC(=O)C2CCN(c3ccc(C=O)cc3)CC2)cc1
[1]
  inhibition: 0.636%

## CCn1ccnc(N2CC[C@H](c3c[nH]c4ccccc34)C2)c1=O
Thailand/16681/1984, Concentration 49.5 uM, Number of replicates 2.0, Standard deviation 0.7663200687712609 %
  inhibition: 7.74%
Thailand/16681/1984, Concentration 99.01 uM, Number of replicates 2.0, Standard deviation 0.5205284148002172 %
  inhibition: 15.6%
Thailand/16681/1984, Concentration 198.0 uM, Number of replicates 2.0, Standard deviation 1.2986233015210575 %
  inhibition: 29.9%

## Cc1cn[nH]c1-c1nn(C)cc1NC(=O)c1ccccc1C(F)(F)F
Thailand/16681/1984, Concentration 49.5 uM, Number of replicates 2.0, Standard deviation 0.3615954096842132 %
  inhibition: -0.036%
Thailand/16681/1984, Concentration 99.01 uM, Number of replicates 2.0, Standard deviation 5.6696304765625785 %
  inhibition: 2.81%
Thailand/16681/1984, Concentration 198.0 uM, Number of replicates 2.0, Standard deviation 0.11218732430326796 %
  inhibition: -0.957%

## CC(C)(CO)NC(=O)c1cc(Cl)cc(NC(=O)c2cnc(-c3ccc(Cl)cc3)[nH]2)c1
Thailand/16681/1984, Concentration 49.5 uM, Number of replicates 2.0, Standard deviation 0.4056359371721259 %
  inhibition: 3.86%
Thailand/16681/1984, Concentration 99.01 uM, Number of replicates 2.0, Standard deviation 1.3045248718369469 %
  inhibition: 8.39%
Thailand/16681/1984, Concentration 198.0 uM, Number of replicates 2.0, Standard deviation 1.1566416956558625 %
  inhibition: 13.4%

## Cc1cnccc1NC(=O)CCCn1c(=O)oc2ccccc21
Thailand/16681/1984, Concentration 49.5 uM, Number of replicates 2.0, Standard deviation 0.2250312122126386 %
  inhibition: -1.7%
Thailand/16681/1984, Concentration 99.01 uM, Number of replicates 2.0, Standard deviation 1.6434097261555802 %
  inhibition: -2.49%
Thailand/16681/1984, Concentration 198.0 uM, Number of replicates 2.0, Standard deviation 0.5817239529640948 %
  inhibition: -1.81%

## CCCC[C@H](NC(C)=O)C(=O)N[C@H](C(=O)NCc1ccc(CN)cc1)c1ccc(OCc2ccccc2)cc1
Thailand/16681/1984, Concentration 49.5 uM, Number of replicates 2.0, Standard deviation 1.556187076043376 %
  inhibition: -3.73%
Thailand/16681/1984, Concentration 99.01 uM, Number of replicates 2.0, Standard deviation 1.4164928639405643 %
  inhibition: 9.94%
Thailand/16681/1984, Concentration 198.0 uM, Number of replicates 2.0, Standard deviation 0.0753329398535839 %
  inhibition: 99.6%

## c1cc(CN2CCC(c3c[nH]c4cccnc34)CC2)c2cn[nH]c2c1
Thailand/16681/1984, Concentration 49.5 uM, Number of replicates 2.0, Standard deviation 2.4318292420624372 %
  inhibition: -3.58%
Thailand/16681/1984, Concentration 99.01 uM, Number of replicates 2.0, Standard deviation 2.156937991960047 %
  inhibition: -1.91%
Thailand/16681/1984, Concentration 198.0 uM, Number of replicates 2.0, Standard deviation 1.6889834084783495 %
  inhibition: 0.616%

## O=Cc1ccc(N2CCC(C(=O)NCc3c(Cl)cccc3Cl)CC2)cc1
[1]
  inhibition: 10.1%

## Cn1cc(CNC(=O)c2ccccc2[C@@H]2CCCCN2)cn1
Thailand/16681/1984, Concentration 49.5 uM, Number of replicates 2.0, Standard deviation 1.3250088302691205 %
  inhibition: -2.36%
Thailand/16681/1984, Concentration 99.01 uM, Number of replicates 2.0, Standard deviation 0.6184423716804828 %
  inhibition: -1.37%
Thailand/16681/1984, Concentration 198.0 uM, Number of replicates 2.0, Standard deviation 0.12536703369097324 %
  inhibition: -0.243%

## CN1CCN(c2ccc(CNS(=O)(=O)c3ccc(C(N)=O)cc3)cc2)CC1
Thailand/16681/1984, Concentration 49.5 uM, Number of replicates 2.0, Standard deviation 20.119100919634967 %
  inhibition: 3.83%
Thailand/16681/1984, Concentration 99.01 uM, Number of replicates 2.0, Standard deviation 1.1600630082305827 %
  inhibition: -8.14%
Thailand/16681/1984, Concentration 198.0 uM, Number of replicates 2.0, Standard deviation 11.722555520251234 %
  inhibition: 2.42%

## O=S1(=O)CCC(CN2CC[C@H](c3c[nH]c4ccccc34)C2)CC1
Thailand/16681/1984, Concentration 49.5 uM, Number of replicates 2.0, Standard deviation 2.0792070439401633 %
  inhibition: -2.27%
Thailand/16681/1984, Concentration 99.01 uM, Number of replicates 2.0, Standard deviation 2.2961386855402206 %
  inhibition: -2.06%
Thailand/16681/1984, Concentration 198.0 uM, Number of replicates 2.0, Standard deviation 2.402459073700363 %
  inhibition: -1.62%

## Cn1cc(NC(=O)c2cccc3ncccc23)cn1
Thailand/16681/1984, Concentration 49.5 uM, Number of replicates 2.0, Standard deviation 0.5748440700005705 %
  inhibition: -2.32%
Thailand/16681/1984, Concentration 99.01 uM, Number of replicates 2.0, Standard deviation 0.0176162025657954 %
  inhibition: -1.95%
Thailand/16681/1984, Concentration 198.0 uM, Number of replicates 2.0, Standard deviation 0.5757711320804162 %
  inhibition: -1.7%

## Cc1cc(CO)c2cccc(C[C@H](NC(=O)[C@@H](N)CC(N)=O)C(=O)O)c2n1
Thailand/16681/1984, Concentration 49.95 uM, Number of replicates 2.0, Standard deviation 0.5965579577659891 %
  inhibition: 9.31%
Thailand/16681/1984, Concentration 99.9 uM, Number of replicates 2.0, Standard deviation 0.16349605474346013 %
  inhibition: 25.5%

## CNC(=O)c1cc(Cl)ccc1NS(=O)(=O)c1cc(Cl)cc(C(=O)NC)c1OC
Thailand/16681/1984, Concentration 49.5 uM, Number of replicates 2.0, Standard deviation 3.5107220562143744 %
  inhibition: -1.24%
Thailand/16681/1984, Concentration 99.01 uM, Number of replicates 2.0, Standard deviation 4.644293157051252 %
  inhibition: 1.93%
Thailand/16681/1984, Concentration 198.0 uM, Number of replicates 2.0, Standard deviation 3.3165321375743706 %
  inhibition: 8.2%

## COc1cc(C(=O)NCCO)nc(N2CCNCC2)n1
Thailand/16681/1984, Concentration 49.5 uM, Number of replicates 2.0, Standard deviation 3.6618233971603567 %
  inhibition: -4.83%
Thailand/16681/1984, Concentration 99.01 uM, Number of replicates 2.0, Standard deviation 2.7372142638980654 %
  inhibition: -4.02%
Thailand/16681/1984, Concentration 198.0 uM, Number of replicates 2.0, Standard deviation 2.6691447011826064 %
  inhibition: 1.2%

## Cc1[nH]c(C#N)cc1C(=O)N(C)C1CCN(C(=O)c2ccc3c(C)n[nH]c3c2)CC1
Thailand/16681/1984, Concentration 49.5 uM, Number of replicates 2.0, Standard deviation 1.0210106926305917 %
  inhibition: -1.72%
Thailand/16681/1984, Concentration 99.01 uM, Number of replicates 2.0, Standard deviation 1.3721862423245779 %
  inhibition: -1.37%
Thailand/16681/1984, Concentration 198.0 uM, Number of replicates 2.0, Standard deviation 0.14252962553131407 %
  inhibition: -0.212%

## Cc1cc(CO)c2cccc(CC(=O)N3C[C@H](O)C[C@H]3C(=O)O)c2n1
Thailand/16681/1984, Concentration 49.95 uM, Number of replicates 2.0, Standard deviation 0.2659010955073496 %
  inhibition: -4.6%
Thailand/16681/1984, Concentration 99.9 uM, Number of replicates 2.0, Standard deviation 0.3535766978005003 %
  inhibition: -0.828%

## Cn1cc(NC(=O)c2ccccc2C(F)(F)F)c(-c2ccc(N)nc2)n1
Thailand/16681/1984, Concentration 49.5 uM, Number of replicates 2.0, Standard deviation 0.02318042950620363 %
  inhibition: -3.62%
Thailand/16681/1984, Concentration 99.01 uM, Number of replicates 2.0, Standard deviation 0.5795125921164253 %
  inhibition: -3.54%
Thailand/16681/1984, Concentration 198.0 uM, Number of replicates 2.0, Standard deviation 2.685074924440845 %
  inhibition: -2.16%

## Cc1cc(CO)c2cccc(C[C@H](NC(=O)Cc3c(C)c4c(=O)[nH]n(C)c4[nH]c3=O)C(=O)O)c2n1
Thailand/16681/1984, Concentration 49.95 uM, Number of replicates 2.0, Standard deviation 0.9775980056715216 %
  inhibition: 2.52%
Thailand/16681/1984, Concentration 99.9 uM, Number of replicates 2.0, Standard deviation 0.5749383103538409 %
  inhibition: 7.17%

## O=Cc1ccc(N2CCC(C(=O)N3CCC[C@H]3c3cccc(F)c3)CC2)cc1
[1]
  inhibition: 13.9%

## NCc1cccc(NC(=O)[C@@H](Cc2ccc(O)cc2)NC(=O)OCc2ccccc2)c1
Thailand/16681/1984, Concentration 49.5 uM, Number of replicates 2.0, Standard deviation 0.05643935060312033 %
  inhibition: -2.95%
Thailand/16681/1984, Concentration 99.01 uM, Number of replicates 2.0, Standard deviation 0.226235853436777 %
  inhibition: -2.21%
Thailand/16681/1984, Concentration 198.0 uM, Number of replicates 2.0, Standard deviation 0.3792919652166946 %
  inhibition: -1%

Source: ChEMBL document CHEMBL5606460, “ASAP - DENV-2 NS2B-NS3 protease fluorescence single point” (2024)
